# Reference: the RNAGym collection of RNA variant scans (doi:10.7554/elife.90254)
# Read counts are not given, so values of variants with three or more changes are uncertain.
# B1: LINE1-mini (parent)
# chain: GGCAGAGCUCAACACAGCGUGGCAAAGUGGCUGUGGCUAGACUGCC
# Variants of: B1
# Test: self-cleavage, relative activity (ratio to wild type); higher = more cleavage; in vitro, sequencing; the parent is a self-cleaving ribozyme
row,Variant,self-cleavage
1,GGCAUAGCUCAACACAGCGUUGCAAAGUGGCUAUGGCUAGACUGCC [G5U G21U G33A],0.05
2,GGCAGAGUUCAACACAGCGUGGCAAAUUAGCUGUGGCUAGACUGCC [C8U G27U G29A],0.03
3,GGCAGAGCUCACCACAGCGCGGCAAAGUGGCUGUGGAUACACUACC [A12C U20C C37A G40C G44A],0.01
4,GGCAGAGCUCAACACAGCGUGGCAAAGUGGUUGUGGCCAGACGGCC [C31U U38C U43G],0.07
5,GGCAGAGCGCAACACAGCGUGGCAGAGUGGCUGUGACUAGACUGCC [U9G A25G G36A],0.1
6,GGCAGAGCUCAACAAAGCGUGGCAAAGUGGCUGCGGCCAGACUGCC [C15A U34C U38C],0.02
7,GGCAAAGCUCAACACAGUGUGGCAAAGUGGCUGUUGCUAGAAUGCC [G5A C18U G35U C42A],0.04
8,GGCAACGCCCAACACAGCGUGGCAAAGUGGCUGUGACUUGACUGCC [G5A A6C U9C G36A A39U],0.03
9,GGCAGAGCUCAACAAAACGUGGAAAAGUGGCUGUGGCUAGACUGCC [C15A G17A C23A],0.03
10,GGCAGAGCACAACUCAGAGUGGCAAAGUGGCUGUUGCUAGUCUGUC [U9A A14U C18A G35U A41U C45U],0.09
11,GGCCGAGCUCAACACAGCGUGAUAAAGUGGCUGUGGCUAGAAUGCC [A4C G22A C23U C42A],0.34
12,GGCAGAGCACAACACAGCGUGGCUAAGUGGCUGUGGCUAGUCUGCC [U9A A24U A41U],0.32
13,GGCAGAGCGCAACACAACGUGGCAAAGUGGCUGUGGCUAGACUACC [U9G G17A G44A],0.06
14,GGCAGAACUGAACACAGCGUGGCAAAGUGGCUGUGGAUAGAUUCCC [G7A C10G C37A C42U G44C],0.03
15,GGCAGAGCUCAACACAGGGUGUCAAAGUAGCUGUGGCUAUACUGCC [C18G G22U G29A G40U],0.15
16,GGCAGAUCUCAACACAGCGUGACAAAAUGGCUGUGGCUAGACGGCC [G7U G22A G27A U43G],0.03
17,GGCAGAUCUCAACACAGCGUGGCAAAAUGGCUGUCGCUGGACUGCA [G7U G27A G35C A39G C46A],0.09
18,GUCAGAGCUCAACACAUCGGGGCAAAGUGGCCGUGGCUAGACUGCC [G2U G17U U20G U32C],0.03
19,GGCAGAGCUCAACAUAGCGUGUCAAAGUGGCUGUGGCUAUACUGCC [C15U G22U G40U],0.09

row,Variant,self-cleavage
1,GGCAGCGCUCAACACAGCGUGGCAAAGUGGCUUUGCCUAGACUGAC [A6C G33U G36C C45A],0.01
2,GGCCGAGCAGAUCACAGCGUGGCAAAGUGGCUGUGGCUAGACUGCC [A4C U9A C10G A12U],0.04
3,GGCAGAUCUCAACUCAGCGUGGCAAAGUGGUUGUAGCGAGACUGCC [G7U A14U C31U G35A U38G],0.13
4,GGCAGAGUUCAACACAGCGUGGCAAAGUGGCUGUGGCUAUAUUGCC [C8U G40U C42U],0.19
5,GGCAAGGCUCAACACAGCAUGGCAAAGUGGCUGUGGCUAGACUUCC [G5A A6G G19A G44U],0.05
6,GGCAGAGCUCAACACAGCGUUGCACAGUGUCUGUGGCUAGACUGCC [G21U A25C G30U],0.34
7,GGGAGAGCCCAACACAGCGUGGCAAAGUGACUGUGGCUAGACUGCC [C3G U9C G30A],0.09
8,GGCAGAGCUCAACACAGCGUGGAAAAGUGGCGGUGGCUAGACUGCG [C23A U32G C46G],0.15
9,AGCAGGGCUCAACACAGCGUGGCAAAGUGUCUGUGGCUAGACUGCC [G1A A6G G30U],0.18
10,UGCAGAGCUCAACACAGCGUGGAAAAGUGGCUGUAGCUAGACUGCC [G1U C23A G35A],0.07
11,GGCAGAUCUCAACACAGCGUGUCAAAGUGGCUUUGGCUAGACUGCC [G7U G22U G33U],0.14
12,GGCAGAGCUCAACACAUCGUGGUAAAGUUGCAGGGGCUAGACUGCC [G17U C23U G29U U32A U34G],0.02
13,GGCAGAGCUCAAAACAGCGGGGCAAAGUGUCUGUGACUGGACUGCC [C13A U20G G30U G36A A39G],0.01
14,GGCGGAGUUCACCACAACGUGGCAAAGUGGCUGUGGCUAGACUGCA [A4G C8U A12C G17A C46A],0.04
15,GGCAGAGCUCAACACAGCGUGGAAAAGUGCCAGUGGUUAGACUGCC [C23A G30C U32A C37U],0.05
16,GGCAGAGCUCAACAUAGCGUGGCAAAGUUGCUGUGGGCAGACCGCC [C15U G29U C37G U38C U43C],0.03
17,AUCAGAGCUCAAUACAGCGUGGCAAAGUGGCUGUGGCUGGACUGCC [G1A G2U C13U A39G],0.02
18,GGGAGAGCUCAACACAGCGUGGCAAAGUGGCUGUGGCUAGCCAGUC [C3G A41C U43A C45U],0.21
19,GGCAGAGCUCAACCCAGCGUGGUUAAGUGGCUGUGGCUAAACUGCC [A14C C23U A24U G40A],0.04

row,Variant,self-cleavage
1,GGCACAGCUCAACACAGCUUGGCAAUUUGGCUGUGGCUAGACUGCC [G5C G19U A26U G27U],0.08
2,GGCAGAACUCAACACAGCGUGGCAAAGUGGUUGUGGCUAGACUGCU [G7A C31U C46U],0.05
3,GGCAGCCCUCAACACAGCGUGGCACAGUGUCUGUGGCUAGACUGCC [A6C G7C A25C G30U],0.07
4,GGAAGAGCUAAACACAGCGUGGCAAAGUAGCUGUGGCUAGACUGCC [C3A C10A G29A],0.03
5,GGCAGAGCUCAACACAGCGUGACAGAGUGGCUGUGGCUGGACUGCC [G22A A25G A39G],0
6,GGCUAAGCUCAACACAGCGUUGCAAAGUGGCUGUGGCUAGACUGCG [A4U G5A G21U C46G],0.15
7,GGCAUAGCUUAACACAGCGUGGCAAAGUUGCUGUGGCUAGACUGCC [G5U C10U G29U],0.04
8,GGCCGAGCUCAACACAGCGUGGCAAAGUGUCUGUGCCUAGACUGCC [A4C G30U G36C],0.29
9,GGCAAAGCUCAACACAGCGAGGCAUAGUGGGUGUGGGUAGACUGCC [G5A U20A A25U C31G C37G],0.01
10,GGCAGAGCUUGACACAGCGUGUCAAAGUGGCUGUGGCUAGACUGCC [C10U A11G G22U],0.04
11,GGCAGAGUUCAACAUUGCGUGGCAAAGUGGCUGUGGCUAGACUGCC [C8U C15U A16U],0.14
12,GGCAGAACUCAACACAGCGUGGCACAGUGGCGGUGGCUAGACUGCC [G7A A25C U32G],0.06
13,GGCAGAGCUCAGCACAUCGUGGCAAAGUGGCUGUUGCUAGACUGCC [A12G G17U G35U],0.1
14,GCCUGAACCCAACACAGCGUGGCAAGGUGGCUUUGGCUAGACUGCC [G2C A4U G7A U9C A26G G33U],0.03
15,GUCAGAGCUAAACAAAGCGUGGCAAAGUGGCUGUGGCUAAACUGCC [G2U C10A C15A G40A],0.03
16,GGCACUGCUCAAAAAAGCGUGGCAAAGUGGCUGUGGCUAUACUGCC [G5C A6U C13A C15A G40U],0.02
17,GGCAGAGCUCAAUACAGCGUGGCAAAGUGGCUGUGACUAGGCUGCC [C13U G36A A41G],0.05
18,AGUAGAGCCCAACACAGCAUGGCAAAGUGGCAGUGGCUAGACUGCC [G1A C3U U9C G19A U32A],0.09
